The supplement of paper PMC11417369
± gives the standard deviation of the averaged measurements. Some of the results follow.

What follows are sequences tested on PfAP2-I AP2 domain 3 (GST-tagged) (assay: gcPBM binding intensity (ln(normalized median fluorescence intensity)); higher = stronger DNA binding).
In short: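 Binding intensity values are the highest Masliner-normalised natural-log median intensity among replicate spots of either probe orientation. The binding step lasted 1 h in 1× PBS with 1% milk, 0.2 mg/ml BSA, 0.5% salmon testes DNA and 0.03% Triton X-100, using GST-tagged P. falciparum DNA-binding domains expressed in E. coli on an Agilent 4 × 180k array of primer-extended double-stranded 36-bp intergenic genomic probes plus negative controls. Alexa488 anti-GST antibody and a 488 nm scan detected bound protein.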

Sequence	gcPBM binding intensity (ln)
TATATACATGCATATACACACATATATTTATTTATA [CACACA_site6327]	7.92 ± 0.38
AATTGGAAGAAAAAAAAGGAAGGAAAGTTATTACAT [GTGCAC_negctrl_site74]	7.47 ± 0.77
TCTTGAATAACAAAAAAATGTGCCAACAAAATAAAT [XGTACX_negctrl_site172]	8.53 ± 0.53
TCATACATGGTGTGTTTGCACTTGACCTATATTCAT	8.97 ± 0.46
AAAAAAAATGGATGATCACACACTTCATAAAAATTG [CACACA_site2213]	7.49 ± 0.68
AATATATTTTTTCACTGTACTTTTATTATATATACA [XGTACX_site8312]	8.18 ± 0.6
ATAATTTTTTGATTTGCATGTAATAAATATATGATA [TGCATGCA_site384]	7.66 ± 0.54
GATTTTTTTTTGTGGACACACAGAAATAAATTTATA [CACACA_site327]	8 ± 0.33
ATACAACGATATATATATATACAAATACATATTTAT [CACACA_negctrl_site268]	7.73 ± 0.55
CACATACAGATATATACACACAAATATATATACTCA [CACACA_site4591]	7.72 ± 0.42
AGGATACACAGACACACACACATATATATATATATA [CACACA_site907]	9.23 ± 0.28
TAAATAGATGTTTTATGTACGTATAAATAAAAAAAA [XGTACX_site3412]	7.79 ± 0.59
ATTAAAAATATAGTCACACATACACCCATATATATT [CACACA_site5394]	7.67 ± 0.71
TTTTTTTAAAGACATGCATGTAATATTTAAATCATT [TGCATGCA_site495]	7.53 ± 0.64
TAATAAAGGTGTAATACACACTATAAAAAGGAATAT [CACACA_site4756]	8.26 ± 0.83
AAAAAACAAAAAATTACACACATATATAAATATATT [CACACA_site2317]	7.27 ± 0.48
ATGTGTATATATTATTGTACATATATATATATATAT [XGTACX_site4627]	9.16 ± 0.19
ACATATATATAAATATATATATATATATATATATAT [CACACA_negctrl_site874]	9.09 ± 0.5
ATGGTAAGTATTTTATGTACATATATATTTATATAA [XGTACX_site4003]	7.86 ± 0.34

Sequence	gcPBM binding intensity (ln)
AAAAAAAAAAAAAAAAGTACTAATTGAATATTAAAC [XGTACX_site3383]	8.49 ± 0.33
TACACCCATAGACACACACACACGCATAAAAAAAAA [CACACA_site8428]	8.36 ± 0.34
TAATTAAATAAAAAAACACACACATATATACATATA [CACACA_site9141]	7.68 ± 0.41
TCTATTAATTAATATACACACATTAGATATAAATAT [CACACA_site7241]	7.72 ± 0.33
ACACATATATAAATATGTACATATATATATATACAT [XGTACX_site1595]	7.78 ± 0.31
AATATTTGTTAAAGAGGTACACCATTTGGTAGGGAA [XGTACX_site2165]	8.15 ± 0.48
ATAATATGAAAACACACACACACACTAGAAAAAAAA [CACACA_site5153]	8 ± 0.42
AAAAAAAAAAATATAACACACAACAAAAAAATATAT [CACACA_site1753]	7.83 ± 0.73
ATTATTTAAATGGATGCACACATGCATTAAATAAAA [CACACA_site5831]	8.99 ± 0.82
TATTTTAACATTAGGTGTACATACAAAAATAAAAAT [XGTACX_site8577]	8.26 ± 0.43
TTTTTCAAATTTAATACACACACAAGTATATATTTA [CACACA_site9307]	7.77 ± 0.44
TTTTTCTTTTTACATACACACAAAAAAATAAAATAT [CACACA_site581]	7.88 ± 0.47
TGGTAATTTCTTTGATAAAAATTAATATGTATAAAT [XGTACX_negctrl_site152]	7.62 ± 0.69
AAATTAATATTATGTGCATGCACAAAGAGGAACGAC [TGCATGCA_site754]	10.5 ± 0.35
TATATATAAAGGTGTACACATATATATATATCTGTA [CACACA_site5311]	7.89 ± 0.27
ATTTCATATTATGTAACACACAACAAGATAATCAAA [CACACA_site1960]	7.79 ± 0.38
TTTTTTAACCTTTTATGTACACAATATTTAACATTT [XGTACX_site1170]	8.19 ± 0.61
ACTTACACAGTTGATGGTACACTTTTATGATTTTGT [XGTACX_site3205]	8.07 ± 0.73
ACAAGTTAAAATATTACACACATATAAATATATATA [CACACA_site3132]	8.08 ± 0.67

Sequence	gcPBM binding intensity (ln)
TTTTATTTACACAGTGGTACTATTAAAAATTAATGA [XGTACX_site6737]	7.91 ± 0.51
ATAAGGTTACAACAAACACACAAAGGAATATACTCA [CACACA_site6108]	7.8 ± 0.82
CAATTACAAAAGAAATGTACTCGTAATAAATAAATA [XGTACX_site1126]	7.83 ± 0.6
TGAAATTTTTATACATGTACAAAATTAAATATAACA [XGTACX_site7324]	7.88 ± 0.5
TATAATAATAATAATAGTACGTATTATTAAAAAACT [XGTACX_site10]	7.79 ± 0.42
ATATTACACATATATGCACACATTGTAGTTATTTAT [CACACA_site8843]	9.34 ± 0.26
TAATAAGTAAAAAAATGTACCCGTTAGGTTTAATAA [XGTACX_site638]	7.59 ± 0.41
AAAATAATATTTAATACACACACCAGTTCTGCAAAT [CACACA_site3736]	7.93 ± 0.61
ACAAAAAGGTAATTTACACACTGCATATAGGAATAA [CACACA_site2929]	8.24 ± 0.71
TTTTTCTCTCTCTTATTATACAACAACAAAAAAAAA [GTGCAC_negctrl_site178]	7.85 ± 0.34
AGAAATATATATATATATATATGTGACAATATTTGT [TGCATGCA_negctrl_site282]	8.02 ± 0.61
TTTTTTTATTTTATTTTATTATCTTATGTATCACAA [CACACA_negctrl_site1755]	7.75 ± 0.57
TTTGTTCATATTATTGTGCACTTAAACGTAACAAAA [GTGCAC_site9505]	11.3 ± 0.39
TTTATATTCTTAAGTGTGCACTATATATATATATAT [GTGCAC_site9719]	11.2 ± 0.23
ACCCTATATGTAACTACACACCGCATATTGTTTACT [CACACA_site3071]	8.34 ± 0.65
AATGTAGCATTTTATCGTACACTTAATACAAAAAAG [XGTACX_site6214]	7.89 ± 0.33
ATGTATGTATATACTTGTACATATTCATATTAGTAT [XGTACX_site1118]	7.66 ± 0.39
TATCATGTCTGTATTTCACACACGGATAATCATTTA [CACACA_site920]	7.57 ± 0.65
